Measured values as given in article PMC6919601, “Identification of Plasmodium dipeptidyl aminopeptidase allosteric inhibitors by high throughput screening” (PLoS ONE, 2019).
Among all 110,000 compounds or so, about 230 (0.21%) showed an effect of 50% or more. Some of the results follow.

target: DPAP1 (Plasmodium falciparum, UniProt Q8IIJ9); test: primary screen, percent inhibition; read by cleavage of a fluorogenic dipeptide substrate; higher = more effect of the substance; set-up: species or system P. falciparum D10 trophozoite lysates; single well
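Also: 30 min substrate incubation versus DMSO and 10 µM JCP410 controls.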

Chain of DPAP1 (Q8IIJ9 whole entry, looked up): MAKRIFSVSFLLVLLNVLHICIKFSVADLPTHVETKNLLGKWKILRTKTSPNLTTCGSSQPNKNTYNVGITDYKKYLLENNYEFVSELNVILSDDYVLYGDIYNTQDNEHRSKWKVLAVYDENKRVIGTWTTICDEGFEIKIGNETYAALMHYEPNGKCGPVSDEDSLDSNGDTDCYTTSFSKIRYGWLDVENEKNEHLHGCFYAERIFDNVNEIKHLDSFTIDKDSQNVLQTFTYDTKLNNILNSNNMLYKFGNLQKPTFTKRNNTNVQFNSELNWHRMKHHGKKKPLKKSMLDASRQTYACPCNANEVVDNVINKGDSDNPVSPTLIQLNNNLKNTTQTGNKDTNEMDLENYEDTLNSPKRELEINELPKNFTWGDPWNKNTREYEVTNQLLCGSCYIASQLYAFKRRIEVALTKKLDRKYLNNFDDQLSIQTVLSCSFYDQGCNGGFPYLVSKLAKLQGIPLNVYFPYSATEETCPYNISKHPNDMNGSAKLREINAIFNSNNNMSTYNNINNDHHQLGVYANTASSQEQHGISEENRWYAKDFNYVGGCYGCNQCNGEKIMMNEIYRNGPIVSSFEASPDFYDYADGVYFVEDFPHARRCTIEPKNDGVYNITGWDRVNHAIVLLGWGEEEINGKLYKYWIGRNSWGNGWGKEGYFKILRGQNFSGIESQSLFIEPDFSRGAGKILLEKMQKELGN

| SMILES | % Inhibition @ 10 uM [%] |
| --- | --- |
| CC(C)Cn1cc(NC(=O)NCCc2c[nH]c3ccccc23)c2ccccc2c1=O | -5.55 |
| O=C1C2C3C=CC(C2C(=O)N1c1ccncc1)C1C(=O)N(c2ccncc2)C(=O)C31 (stereo not drawn) | -2.37 |
| COc1ccc(/C=C2\SC(Nc3ccc(F)cc3)=NC2=O)cc1 | 2.43 |
| OC1CCCN(Cc2ccccc2C(F)(F)F)C1 (stereo not drawn) | -0.969 |
| Cc1cc(O)c(C2=Nc3ccccc3SC(c3ccccc3Br)C2)c(=O)o1 (stereo not drawn) | 6.11 |
| CC1CCc2nn(CC(=O)NCCc3c[nH]c4ccccc34)cc2C1 (stereo not drawn) | -3.35 |
| Cc1ccccc1Cn1cc(CCCC(=O)NCCN2CCOCC2)c2ccccc21 | 1.92 |
| COc1cc(/C=C2/SC(=O)N(Cc3ccccc3F)C2=O)cc(OC)c1O | 4.74 |
| NC(=O)C1CCN(C(=O)Cn2ncc3c4ccccc4n(Cc4ccccc4)c3c2=O)CC1 | -1.58 |
| N#Cc1cc2c(nc1SCc1ccccc1F)CCC2 | 0.317 |
| Cc1ccc(-c2nc(C#N)c(N3CCCCC3)o2)cc1 | 1.87 |
| O=C(NCCc1ccccc1)c1ccc(Cl)c(Cl)c1 | -2.03 |
| CC(=O)c1ccc(OCC(O)Cn2c[n+](C)c3ccccc32)cc1 (stereo not drawn) | 1.84 |
| COc1ccc(NC(=O)c2cccc(S(=O)(=O)Nc3cccc(C)c3)c2)cc1 | -9.29 |
| O=C1CCCCCN1C(=O)c1cccc(C(=O)N2CCCCCC2=O)n1 | -2.5 |
| CCOC(=O)c1sc2nccc(N(C)C)c2c1N | 0.484 |
| Cc1ccc(NC(=O)CN2C(=O)S/C(=C\c3cccn3C)C2=O)cc1C | -10.8 |
| CCCC(=O)c1c(Nc2ccccc2)cc(C)oc1=O | 0.605 |
| CC(=O)Nc1ccc(NC(=O)Cn2nc(C(F)(F)F)cc2C2CC2)cc1 | -4.96 |
| CSc1ccccc1NC1CCN(C)CC1 | -5.44 |
| Cc1ccc(NC(=O)COc2ccc(S(=O)(=O)NC3CCCC3)cc2)cc1Cl | -0.872 |
| CNC(=O)C1CCCN(C(=O)c2ccc(-n3ccc4ccccc43)s2)C1 (stereo not drawn) | -2.46 |
| COc1ccc(-c2c(C)nn3c(NCc4ccccn4)cc(C)nc23)cc1OC | -5.58 |
| O=C1CC(NC2CC2)C(=O)N1c1ccccc1 (stereo not drawn) | -0.865 |
| CN(CCCNC(=O)c1cc(-c2cccnc2)nc2ccccc12)C1CCCCC1 | -0.519 |
| Cc1ccc(CNS(=O)(=O)c2cc(F)ccc2CN2C(=O)c3cccnc3C2=O)o1 | -7.11 |

| SMILES | % Inhibition @ 10 uM [%] |
| --- | --- |
| Cc1nc(NC(=O)CCCOc2ccc(Cl)cc2Cl)sc1C | 0.331 |
| COc1ccc(CCNCc2c(C(=O)O)n(Cc3ccccc3)c3ccccc23)c(OC)c1 | 5.09 |
| COc1cccc(/C=C/C(=O)c2c(C)cc(C)nc2O)c1OC | 2.41 |
| CN(CCc1ccccc1)C1CCN(Cc2ccccc2)CC1 | 1.08 |
| N#CCNC(=O)[C@H](CC1CCCCC1)NC(=O)c1c[nH]cn1 | 4.33 |
| O=C1C2C3CCC(C3)C2C(=O)N1c1ccccc1 (stereo not drawn) | -4.72 |
| O=C(NCc1cccnc1)NC1(C(F)(F)F)Oc2ccc(Cl)cc2O1 (stereo not drawn) | -2.14 |
| Cc1[nH]c2c(C)cccc2c1CCNC(=O)c1cc2cc(Cl)ccc2oc1=O | -2.19 |
| CCCN1CCC(N2CCN(c3ccc(F)cc3)CC2)CC1 | -1.42 |
| Cc1cc(CNC(=O)Cn2nc(C)c(Br)c2C)c2ccccc2n1 | -5.96 |
| Cc1ccc(C)c(S(=O)(=O)NCC(=O)NCc2ccco2)c1 | -4.72 |
| Cc1nc2sc(C(=O)c3ccc(F)cc3)c(N)c2c(C)c1C | -4.31 |
| Cc1cc(C)n2nc(-c3ccc(Cl)cc3)cc2n1 | 7.68 |
| CCOc1cnn(C)c(=O)c1OCC | -3.04 |
| COC(=O)c1cccc(OCC(=O)Nc2nn(-c3ccccc3)nc2C(N)=O)c1 | -4.42 |
| O=C(COc1ccc(S(=O)(=O)N2CCCC2)cc1)NCC1CCCO1 (stereo not drawn) | 30.4 |
| CN(C)CCCNc1nc(-c2ccccc2)nc2ccccc12 | -3.23 |
| c1ccc(C(c2ccccc2)c2nn3c(-c4ccncc4)nnc3s2)cc1 | 8.94 |
| OC(c1ccccc1)c1nccc2ccccc12 (stereo not drawn) | 1.03 |
| O=C(Nc1nc(-c2ccccc2)cs1)C1c2ccccc2Oc2ccccc21 | -0.467 |
| CC(C)C(=O)NCCCc1nc2ccccc2n1C | -2.28 |
| Cc1ccc(-c2noc(CCCC(N)=O)n2)cc1 | -2.92 |
| COc1ccc(-c2csc3ncn(CC(=O)Nc4ccc(Cl)cc4)c(=O)c23)cc1OC | 2.76 |
| O=C(NCCc1c[nH]c2ccccc12)c1ccc(S(=O)(=O)N2CCCCC2)cc1 | -2.5 |
| CCCOc1ccc(C(=O)Nc2nc(C3COc4ccccc4O3)cs2)cc1 (stereo not drawn) | -3.49 |
| CC1CC(=O)Nc2ccccc2N1C(=O)c1ccccc1Cl (stereo not drawn) | -3.95 |

| SMILES | % Inhibition @ 10 uM [%] |
| --- | --- |
| O=C(c1ccc(CNc2c(N3CCCCC3)c(=O)c2=O)cc1)N1CCCCC1 | 5.65 |
| Cc1ccccc1Cn1cc(NC(=O)c2ccc(F)cc2)cn1 | -0.67 |
| OC1(C#CCN2CCCCCC2)CCCCC1 | 0.00178 |
| CCn1nc(N)c2c(C)c(Cl)c(C)nc21 | -0.624 |
| O=C(NC1CCCC1)N1CCC2(CC1)Oc1ccccc1C(=O)N2Cc1ccc(F)cc1 | -1.08 |
| Cc1c(C(=O)Nc2ccccc2)sc2ncn(CC(=O)NCCc3ccccc3)c(=O)c12 | -6.2 |
| Fc1cccc(CNC2CCN(CCc3ccccc3)CC2)c1 | -0.0494 |
| O=C(NC(c1ccccc1)c1ccccc1)c1ccco1 | -1.66 |
| Cc1nc2ccc(C(=O)O)cc2s1 | 0.221 |
| N#Cc1c(NC(=O)c2cccc(S(=O)(=O)NCc3ccccc3)c2)sc2c1CCCC2 | -3.9 |
| COc1ccc(C2c3c(n(C)c4ccccc34)C(=O)N2CC(=O)NCc2ccc(F)cc2)cc1 (stereo not drawn) | -1.75 |
| C/C(Cl)=C\Cn1c(=O)c2c(nc3n2CCCN3c2ccccc2)n(C)c1=O | 0.385 |
| CCOC(=O)/C(C#N)=C1/C=Cc2ccccc2N1CC | 1.7 |
| CCN(CC)CCOC(=O)c1cccc2c1-c1ccccc1C2=O | -3.63 |
| Cc1cccc(N(CC(=O)O)CC(=O)O)c1 | -0.0369 |
| c1cncc(CNC2CCCCCCC2)c1 | -2.03 |
| COc1ccc(S(=O)Cc2ccc(C(=O)N3CCC(N4CCCCC4)CC3)o2)cc1 (stereo not drawn) | 2.03 |
| CSc1ccc(COC(=O)N[C@@H](CC(C)C)C(=O)NCC#N)cc1 | -1.41 |
| CC1=C(C(=O)Nc2ccc(Br)cn2)C(c2ccccn2)C2=C(O)CC(C)(C)CC2=N1 (stereo not drawn) | 0.385 |
| CCCC[C@H](NC(=O)[C@H](CC(C)C)NC(=O)N1CCOCC1)C(=O)c1nc2ccccc2o1 | -0.214 |
| COc1ccc(OC)c(NC(=O)c2cnccn2)c1 | -2.53 |
| CC(NC(=O)c1cc(-c2ccc(F)cc2)on1)c1ccccc1 (stereo not drawn) | -0.601 |
| CC1=NOC(=O)C1C(c1cccc(Br)c1)c1c(C)nn(-c2ccccc2)c1O (stereo not drawn) | 0.413 |
| CC(C)(C)NC(=O)C1Cc2ccccc2CN1S(=O)(=O)c1cccs1 (stereo not drawn) | 3.8 |
| CC1=C(c2ccc(Cl)cc2)S(=O)(=O)N=C1NC1CCCc2ccccc21 (stereo not drawn) | 5.42 |
| CC(C)(C)NC(=O)c1sc2ccccc2c1Cl | -2.42 |

| SMILES | % Inhibition @ 10 uM [%] |
| --- | --- |
| O=C(c1ccc(Br)o1)N1CCN(C/C=C/c2ccccc2)CC1 | -3.03 |
| O=C(COc1ccc(Cl)cc1Cl)NCCOC12CC3CC(CC(C3)C1)C2 | 6.42 |
| C1CCN(C2CCN(C3CCCC3)CC2)CC1 | -2.48 |
| COc1cc(/C=C2/N=C(c3ccco3)OC2=O)cc(OC)c1OC | -3.71 |
| CCCCOC(=O)c1ccc(NS(=O)(=O)c2ccc(C)cc2)cc1 | -1.38 |
| CSc1ncc(C(=O)O)c(-c2ccccc2)n1 | 1.77 |
| CCCOc1ccc(C2C3=C(CCCC3=O)N(CC(=O)O)C3=C2C(=O)CCC3)cc1OCC | -3.39 |
| O=C(CCN1CCOCC1)Nc1ccc(OC(F)(F)F)cc1 | 1.57 |
| Cc1cc(C)c2oc(-c3cccc(NC(=O)Cn4cnc5c(=O)n(C)c(=O)n(C)c54)c3)nc2c1 | 2.95 |
| Cc1c(C)n(C)c2ccc(C(=O)N3CCN(c4ccccn4)CC3)cc12 | -6.08 |
| CCC1C(C#N)=C(N)OC2=C1C(=O)CC(C)(C)C2 (stereo not drawn) | -8.63 |
| CC(=O)Nc1ccc(S(=O)(=O)Nc2cccc(Cl)c2)cc1 | 3.01 |
| COc1cccc(NC(=O)COc2cc(C)ccc2C)c1 | -6.27 |
| O=C(CCc1ccccc1)Nc1ccc(NC(=O)CCc2ccccc2)cc1 | -9.68 |
| COc1cccc(/C(O)=C/c2nc3ccc(C(F)(F)F)cc3nc2O)c1 | -3.41 |
| CC(C)CC(=O)N1CC(=O)NC(=O)C1 | -2.2 |
| COc1cc(-c2noc(CN3CCCC3)n2)cc(OC)c1OC | 1.15 |
| CCc1ccc(C2(O)C[N+](c3cc(OC)ccc3OC)=C3CCCCCN32)cc1 (stereo not drawn) | -3.21 |
| CCOc1ccc(N2C(=O)CC(N3CCN(c4ncccn4)CC3)C2=O)cc1 (stereo not drawn) | 4.06 |
| CCOC(=O)c1sc(N2N=C(C)/C(=C\c3ccc(OCC)c(OC)c3)C2=O)nc1C | 0.884 |
| CCN1CCN(Cc2csc(C)c2C)CC1 | -3.32 |
| O=C(OCCN1CCCCC1)c1ccc2c(c1)OCO2 | 1.62 |
| Cc1cccc(NC(=O)CN(C2CCCCC2)S(=O)(=O)c2ccc(F)cc2)c1 | 0.161 |
| CC(C(=O)Nc1nncs1)N1C(=O)C2C3C=CC(C3)C2C1=O (stereo not drawn) | 4.18 |
